Assay results from PubChem BioAssay AID686979 (National Center for Advancing Translational Sciences (NCATS), 2013).
Out of some 420,000 compounds screened, about 50,000 (12%) were called active. The shares of active, inactive and inconclusive entries below differ from those in the screen. Calls follow the shape of the dose curve; as a rule, active = well fitted inhibition curve with a large enough effect; inconclusive = small, poorly fitted or top-dose-only effect; inactive = flat fitted curve, though single readings scatter. Potencies of inconclusive entries are left out as doubtful fits.

assay: qHTS for Inhibitors of human tyrosyl-DNA phosphodiesterase 1 (TDP1): qHTS in cells in presence of CPT; details: chicken DT40 Tdp1-/-;hTDP1 cells + 20 nM CPT, ATP luminescence, 48 h; activity change, negative = growth inhibition: at 46.2 µM (top of the series) unless noted; also: nearly all actives have a fitted effect of over 55% in size
In short: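 Cell growth measured by CellTiter-Glo luminescence after a minimum 48 h, 37 C compound exposure with 20 nM CPT in Tdp1-knockout DT40 cells stably expressing hTDP1, seeded 400/well; qHTS titration format.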
% is scaled to controls: 0 for no effect and ±100 for the full control effect; potency is read from the fitted curve at half-maximal effect; tags tell the direction and shape of the fitted curve.

Compound | Potency | activity change, negative = growth inhibition
Clc1cccc(CSc2ncnc3c2ncn3C2CCCCO2)c1 (stereo not drawn) | inconclusive [inhibitor, single point] | 
CCCC(=O)NC(C)c1nc(-c2ccc(C)cc2)no1 (stereo not drawn) | inconclusive [inhibitor, single point] | 
CCSc1nnc(NC(=O)CSc2nncc(=O)n2N)s1 | inconclusive [inhibitor, single point] | 
CSc1ccc(CN2CCC(C)(Oc3ccc(F)cc3)C2)cc1 (stereo not drawn) | inconclusive [inhibitor, single point] | 
CNC(=O)[C@H]1O[C@@H](n2cnc3c(NCc4cccc(I)c4)nc(Cl)nc32)[C@H](O)[C@@H]1O | inconclusive [inhibitor, single point] | 
Cc1cc(C)cc(NC(=O)Cn2c(=O)n(CCC(C)C)c(=O)c3cccnc32)c1 | inactive | 
O=C(c1c[nH]c(C(=O)C(Cl)(Cl)Cl)c1)c1ccc(F)cc1F | inconclusive [inhibitor, single point] | 
C[C@@H]1CN([C@H](C)CO)C(=O)CCCn2nncc2CO[C@@H]1CN(C)C(=O)c1cc(-c2ccccc2)on1 | inactive | 
COc1ccc(NC(=O)CN2CCN(c3nc(-c4ccc(F)cc4)cs3)CC2)c(OC)c1 | inconclusive [inhibitor, partial curve, poor fit] | 
Cc1c(C(=O)NCc2ccc([N+](=O)[O-])cc2)sc(=O)n1Cc1ccc(-c2ccccc2)cc1 | inconclusive [inhibitor, single point] | 
CCOC(=O)C1CCN(C2=C(NS(=O)(=O)c3ccc(Cl)cc3)C(=O)c3ccccc3C2=O)CC1 | inactive | 
O=S(=O)(c1cccc2ccccc12)N1CCC2CC1c1cc(-c3ccc4c(c3)OCO4)ccc12 (stereo not drawn) | inconclusive [inhibitor, partial curve, poor fit] | 
Cc1nc(Nc2ccc(C(=O)O)cc2)nc(Nc2ccc(C(=O)O)cc2)c1[N+](=O)[O-] | inactive | 
O=C(CC[C@H]1O[C@@H](n2ccc(=O)[nH]c2=O)[C@H](O)[C@@H]1O)N1CCN(Cc2cccc3ccccc23)CC1 | inactive | 
O=C(CSc1nc2ccccc2c2nc(-c3ccccc3)nn12)Nc1ccc(F)cc1 | inconclusive [inhibitor, single point] | 
c1csc(C2Nc3ccccc3-c3nc4ccccc4n32)c1 (stereo not drawn) | active: 16.4 µM | 
Cc1ccc(O)c(CN(C)Cc2cc(C)ccc2O)c1 | inconclusive [inhibitor, single point] | 
COc1ccc(-c2cc(C(C)=O)c(C)n2CCC(=O)Nc2cccc(C)c2C)cc1 | inconclusive [inhibitor, single point] | 
CC1=C(C(=O)N2CCOCC2)CC(CC(=O)NCc2cccs2)C(=O)N1CCC1=CCCCC1 (stereo not drawn) | inconclusive [inhibitor, partial curve, poor fit] | 
CC(C)c1ccc2[nH]c(O)c(N=NC(=S)NCCc3ccccc3)c2c1 | active: 18.4 µM | 
COc1cc2c(cc1OC)C(=O)CC(C)S2 (stereo not drawn) | inactive | 
C/C(=N\NC(=S)NC1CCCCC1)c1cccs1 | active: 13 µM | 

Compound | Potency | activity change, negative = growth inhibition
COc1ccc(NC(NC(=O)c2ccc(OC)cc2)C(Cl)(Cl)Cl)cc1 (stereo not drawn) | inconclusive [inhibitor, single point] | 
CC1(C)Cc2c(ccc3ccccc23)C(c2cc3ccccc3oc2=O)=N1 | inconclusive [inhibitor, single point] | 
O=C(CSCc1ccc(Cl)cc1)Nc1cc([N+](=O)[O-])ccc1O | inconclusive [inhibitor, single point] | 
O=C(Nc1ccc2nc3n(c(=O)c2c1)CCCC3)c1cc([N+](=O)[O-])ccc1F | active: 2.06 µM | 
Cc1ccc(-c2csc(NCCn3c(C(F)(F)F)nc4ccccc43)n2)cc1 | inconclusive [inhibitor, partial curve] | 
N#C/C(=C\c1ccc(Cl)c([N+](=O)[O-])c1)c1ccccn1 | active: 20.6 µM | 
O=[N+]([O-])c1ccc(N2CCN(S(=O)(=O)c3ccccc3)CC2)cc1NCCN1CCOCC1 | inconclusive [inhibitor, partial curve] | 
CCc1nn2c(=O)cc(COC(=O)c3cccc(NC(=O)COc4ccccc4F)c3)nc2s1 | active: 18.4 µM | 
COc1ccc(Br)cc1/C=c1\sc2nc(-c3ccco3)nn2c1=O | inconclusive [inhibitor, partial curve, poor fit] | 
COc1ccc(Cl)cc1NC(=O)c1cc(=O)c2cc(C)cc(C)c2o1 | inactive | 
CCCCN(C)C(=O)c1ccc2c(c1)S(=O)(=O)c1ccccc1C2=O | inactive | 
Cc1cccc(NC(=O)CSc2nc(C)cc(C)c2C(=O)Nc2ccc(Cl)cc2)c1 | inconclusive [inhibitor, single point] | 
CCOc1ccccc1N(C)C(=O)c1cc(S(=O)(=O)NCc2ccc(C)cc2)ccc1F | active: 18.4 µM | 
CN1CCN(C(=O)c2cnn(-c3ccccc3)c2C2CCN(C(=O)OC(C)(C)C)CC2)CC1 | inactive | 
O=C(CNC(=O)C(c1ccccc1)c1ccccc1)OCC(=O)c1cccc2ccccc12 | inconclusive [inhibitor, single point] | 
CCc1cccc(NC(=O)Cn2c(=O)n(Cc3ccccc3)c(=O)c3c(C)c(C(=O)N(C)C)sc32)c1 | inconclusive [inhibitor, single point] | 
Cc1cc2nc(CSc3ccc(Cl)cc3)cc(=O)n2[nH]1 | inconclusive [inhibitor, partial curve, poor fit] | 
CN1CCN(NC(=O)CC(C)(C)C)CC1 | inactive | 
CC(=NNC(=S)N1CCN(C2CCCCCC2)CC1)c1ccccn1 | active: 0.0651 µM | 
CCc1nnc(SC(CC)C(=O)NCCOC)c2cc3occc3n12 (stereo not drawn) | inconclusive [inhibitor, single point] | 
Cc1ccc(C(=O)N2CCOc3ccc(CN4CCN(Cc5ccccn5)CC4)cc3C2)cc1 |  | inactive: -0.88% [at 9.04 µM]
